The source gives no read counts; variants with many changes may rest on few reads.

B1: LINE1-mini (parent)
chain: GGCAGAGCUCAACACAGCGUGGCAAAGUGGCUGUGGCUAGACUGCC

Variants of B1 are the subject of this data set. The experiment in a line: self-cleavage, relative activity (ratio to wild type); higher = more cleavage; in vitro, sequencing; the parent is a self-cleaving ribozyme.
Regarding A25U U32C C45G, the self-cleavage is 0.07.

As to A25U A26U U34C A39G, the self-cleavage was 0.06.

For the variant A26C G40U G44A, the self-cleavage came to 0.

As for A26U G29A G36U C46G, the self-cleavage was found to be 0.

Turning to A26U C31U G36U C37G A39G C42U, the self-cleavage stood at 0.

Take A26U G33C G44C: the self-cleavage stood at 0.03.

A26C U28G C45U: the self-cleavage was determined as 0.23.

Consider G27A U38C A39G, for which the self-cleavage came to 0.4.

With A26C G29U C37U, the self-cleavage stood at 0.04.

As to A25U G29C G33C G44A C46A, the self-cleavage worked out at 0.02.

Consider G27A G29A G33U G44C, for which the self-cleavage was 0.02.

As for A26C G30C G33U A39U, the self-cleavage was found to be 0.12.

As to G27C U32C G33U G36A C37U G44U, the self-cleavage was found to be 0.02.

With A26G U34G C37U A39C, the self-cleavage turned out to be 0.03.

Consider G27A G29U U34G, for which the self-cleavage is 0.16.

With A26U G30C C45U, the self-cleavage was found to be 2.48.

For the variant A25U C31U U32G U34C G44U, the self-cleavage came to 0.04.

For G27C G33U G40C G44A, the self-cleavage was 0.04.

For the variant A26U G29A U34A, the self-cleavage amounted to 0.06.

In the case of G27A G40U C46U, the self-cleavage was 0.11.

A26G U28G U38A A41G G44A: the self-cleavage came to 0.03.

As to A26G G33C U43A, the self-cleavage worked out at 0.

With G27C U28A U34C G40C, the self-cleavage was 0.05.

As to G27C U38C C46G, the self-cleavage came to 0.14.

On to A26G C31A G44A, for which the self-cleavage was determined as 0.02.

On to A26C U28A G35U, for which the self-cleavage came out at 0.05.

A25U U38G G44A: the self-cleavage amounted to 0.02.

Take G27U A41G C42U: the self-cleavage is 0.14.

As for A26U G33A U43G, the self-cleavage stood at 0.05.

As for G27C U28A U34C, the self-cleavage amounted to 0.13.

Regarding G27C U28A U34G, the self-cleavage was determined as 0.19.

Regarding A26G C31U C42G, the self-cleavage was determined as 0.08.

In the case of A26U U43C G44U, the self-cleavage is 0.29.

Consider A26U C31A C42G G44U, for which the self-cleavage is 0.02.

Regarding G27U G29U G30A A41C, the self-cleavage amounted to 0.08.

Regarding G27U G29C U43A, the self-cleavage was found to be 0.01.

Consider A26G G36U C37A, for which the self-cleavage was 0.1.

Turning to G27C U34C C45A, the self-cleavage came to 0.

Turning to A25U C31G C42A, the self-cleavage is 0.

On to A26C A41U G44A, for which the self-cleavage stood at 0.06.

In the case of G27C G30A G36U G40U, the self-cleavage amounted to 0.49.

In the case of A25G U28A C31A G35A, the self-cleavage was found to be 0.18.

For A26G G30U C31A U38G, the self-cleavage amounted to 0.1.

For A26U G35C G36A, the self-cleavage turned out to be 0.02.

Consider A26G G27U C37A, for which the self-cleavage was 0.01.

In the case of G27U A41U C45A C46A, the self-cleavage came out at 0.06.

A26G U32A U34A G35C: the self-cleavage worked out at 0.

As to A25U C31U C37G, the self-cleavage is 0.01.

Consider G27A U34A G35A, for which the self-cleavage stood at 0.12.

For A25U A41C C45G, the self-cleavage worked out at 0.1.

As to A25U U32C G35C G40U C46U, the self-cleavage stood at 0.13.

As to G27C G30U G35A, the self-cleavage is 0.08.

Regarding G27U C45G C46G, the self-cleavage stood at 0.24.

As for A25U G36A C42A, the self-cleavage came to 0.26.

Take G27A G35A A39U: the self-cleavage was 0.04.

A26U C31U C42G: the self-cleavage stood at 0.04.

In the case of G27U A39U C45G, the self-cleavage amounted to 0.07.

Regarding G27A C31U G40C U43G, the self-cleavage was 0.48.

G27A G33U U38G: the self-cleavage amounted to 0.05.

With A26U C31G C37U, the self-cleavage turned out to be 0.33.

In the case of G27A G33U G36A, the self-cleavage is 0.07.

With A26U G27A G35A U38A G44U, the self-cleavage was 0.06.

As to A26C G27A G36U C46G, the self-cleavage was 0.53.

Consider A26G C31U G44U, for which the self-cleavage came to 0.02.

As for A26G G27U G29A G40C, the self-cleavage was determined as 0.07.

For A25U G30A G33A, the self-cleavage came to 0.06.

On to A26G G30U C31A, for which the self-cleavage turned out to be 0.28.

Turning to A26C G30C U32A G35C, the self-cleavage came out at 0.14.

Regarding A26C G36A U43A, the self-cleavage came out at 0.05.

Regarding G27C C31A U38A A39U A41G C46U, the self-cleavage was found to be 0.17.

For the variant A26C G35A C37U, the self-cleavage came out at 0.04.

Turning to G27A U28A G36U, the self-cleavage was found to be 0.05.

As to G27A G35U G40C C45U, the self-cleavage turned out to be 0.

Regarding A26G G27A U34G G36U G40C C45U, the self-cleavage turned out to be 0.04.

On to G27A G36U A39G A41U, for which the self-cleavage was determined as 0.01.

As for G27A U34C A39G, the self-cleavage came out at 0.03.

With A25U C31G C37G, the self-cleavage was determined as 0.03.

Take G27U G29C C31G: the self-cleavage came to 0.16.

A26U C31U G44C: the self-cleavage is 0.02.

G27A G30U C37G: the self-cleavage turned out to be 0.02.

Regarding G27A G33C C37U G40A, the self-cleavage was 0.1.

Consider A25U G27U U34A, for which the self-cleavage was 0.04.

Turning to G27A G29A C37A, the self-cleavage came out at 0.13.

Turning to G27C G29A G30C, the self-cleavage was 0.56.

Turning to G27U G29A C37U, the self-cleavage amounted to 0.02.

Consider G27U G30U U34A, for which the self-cleavage was 0.3.

On to A26G G29U U32G, for which the self-cleavage turned out to be 0.05.

Take G27U G29C G36U: the self-cleavage was determined as 0.06.

Turning to G27A G36U A39C, the self-cleavage was 0.04.

For A25U G27U C31U, the self-cleavage amounted to 0.78.

Take A25U U28G C46A: the self-cleavage turned out to be 0.27.

Consider G27U C31U C42G, for which the self-cleavage came to 0.08.

With A26U G30C C31U G33C, the self-cleavage came to 0.05.

For the variant A26C G27C C31G, the self-cleavage is 0.02.

With A25U C31G C45A, the self-cleavage is 0.04.

On to A26U G35U U38G, for which the self-cleavage came to 0.05.

With G27C C37A C46G, the self-cleavage is 0.02.

With A26G G27U G40U C42G, the self-cleavage was 0.

Turning to G27A C31A G44U, the self-cleavage came out at 0.04.

A26U G33U G36C G40C: the self-cleavage worked out at 0.01.

With G27A G33U C45U, the self-cleavage worked out at 0.14.

Regarding A26C A41U C46U, the self-cleavage is 0.72.

Consider G27C G40U G44U, for which the self-cleavage was 0.47.

For A26C C42U U43A C46A, the self-cleavage is 0.08.

As to A25U A39U U43C, the self-cleavage was determined as 0.35.

In the case of G27C U32C G33U G40U, the self-cleavage was 0.09.

A25U A26G C46A: the self-cleavage worked out at 0.45.

For the variant G27C G40A C45U, the self-cleavage was 0.11.

As for G27C U28C G35C, the self-cleavage came to 0.2.

Regarding G27A C31U G40U, the self-cleavage came out at 0.26.

Turning to A25G U28C C37A, the self-cleavage came to 0.07.

On to A26G G29C G35U, for which the self-cleavage was determined as 0.03.

On to A26G G27A U32A C46G, for which the self-cleavage was 0.03.

As for A26C U43A C45G, the self-cleavage was 0.11.

Turning to G27A C31A G33U, the self-cleavage turned out to be 0.1.

For the variant A26U G30A C42A, the self-cleavage amounted to 0.19.

A25U G36A C37U: the self-cleavage was determined as 0.04.

G27C G29C G30A: the self-cleavage is 1.08.

With A25U A26U G35A U43A, the self-cleavage came to 0.04.

G27U G29U G44C: the self-cleavage turned out to be 0.02.

A26U G27U G30A G33U: the self-cleavage was determined as 0.06.

Turning to G27C G35A A41U, the self-cleavage worked out at 0.06.

Turning to A26G U38A A41U, the self-cleavage is 0.27.

As to A26U G36U U38G, the self-cleavage was 0.01.

In the case of G27A U28C G40C, the self-cleavage came out at 0.08.

For G27C U38C C45U, the self-cleavage amounted to 0.1.

Turning to A26U G27C G36U, the self-cleavage is 0.03.

With A26U A39G G40U, the self-cleavage stood at 0.08.

As for A25U U28A U32G G35A A41G, the self-cleavage was 0.06.

A26U G30A U32A A39C: the self-cleavage is 0.07.

On to A26C G27U C31U G33U G36C A41C, for which the self-cleavage worked out at 0.

On to A26U G35A G40A, for which the self-cleavage worked out at 0.06.

For A25U G27A G36A C37U C45G, the self-cleavage is 0.25.

Regarding A26U G29U C42G G44A, the self-cleavage amounted to 0.02.

In the case of G27C G40U G44A C46A, the self-cleavage was found to be 0.02.

Regarding A25U G30A G33C G35A C45U, the self-cleavage was 0.04.

For the variant G27A G29A C45G, the self-cleavage turned out to be 0.19.

Take A25U G35A U38A: the self-cleavage was 0.07.

As to A26U U28A G44C, the self-cleavage was 0.42.

For the variant A26C G30A G36C U38C, the self-cleavage turned out to be 0.08.

Turning to A25U C37U C45A, the self-cleavage stood at 0.05.

Take G27A G30A G35C: the self-cleavage amounted to 0.17.

Take G27C G35U G40C: the self-cleavage was 0.1.

In the case of A26U G27C C42A, the self-cleavage turned out to be 0.05.

Turning to A26C G36U U38A A39G C46U, the self-cleavage worked out at 0.02.

As to A26U U28C U32A A39G, the self-cleavage was 0.06.

For the variant A25U U34G C46A, the self-cleavage turned out to be 0.11.

With A25U C37G G44A, the self-cleavage amounted to 0.16.

For A26C G33C G44U, the self-cleavage came out at 0.06.

As for G27C U34A C46A, the self-cleavage was 0.09.

Turning to A26C C42A G44U, the self-cleavage was determined as 0.03.

Take G27C U43C C45A: the self-cleavage is 0.04.

In the case of G27U G29A G30A, the self-cleavage is 0.44.

A25U A39C G40A C46G: the self-cleavage amounted to 0.11.

As for G27U G29U G33U, the self-cleavage turned out to be 0.07.

Consider G27U A41G C46U, for which the self-cleavage was 0.38.

As to A25U G29A U38A A39U C42U, the self-cleavage was determined as 0.11.

Take A26C C31U A39U: the self-cleavage turned out to be 0.05.

With A25U A39G C46U, the self-cleavage was found to be 0.04.

With A25U G35A G40U, the self-cleavage turned out to be 0.03.

G27C C31A A39G: the self-cleavage amounted to 0.03.

With G27U G29A G36A, the self-cleavage is 0.03.

Consider A25G U43A C46A, for which the self-cleavage was found to be 0.04.

For the variant A26U G33C C45A, the self-cleavage was found to be 0.01.

In the case of A25U G33A C37G C42G, the self-cleavage is 0.09.

In the case of G27C C31U C37A U38C, the self-cleavage stood at 0.02.

Consider G27A G30A G44A, for which the self-cleavage was 0.33.

Values taken from the RNAGym collection of RNA variant scans (doi:10.7554/elife.90254).
